In a collection of fitness landscapes (doi:10.1016/j.celrep.2020.107928):
The full ranking holds about 81,000 sequences; the median of “one-hybrid fitness for binding parS DNA” is about -0.17, and the highest 2% start at about 0.51. The list shows a part of the results.

B1: Caulobacter ParB omega fusion; a variant is named by its letters at X, in order, B8GW30 (parent)
chain: MESVVVGEPGMSEGRRGLGRGLSALLGEVDAAPAQAPGEQLGGSREAPIEILQRNPDQPRRTFREEDLEDLSNSIREKGVLQPILVRPSPDTAGEYQIVAGERAWRAAQRAGLKTVPIMVRELDDLAVLEIGIIENVQRADLNVLEEALSYKVLMEKFERTQENIAQTIGKSXSHVANXMRLLXLPDEVQSYLVSGELTAXHARAIAAAADPVALAKQIIEGGLSVRETEALARKAPNLSAGKSKGGRPPRVKDTDTQALESDLSSVLGLDVSIDHRGSTGTLTITYATLEQLDDLCNRLTRGI

Variants of: B1
Test: one-hybrid fitness for binding parS DNA (scaled: cognate 1, non-cognate 0); higher = stronger binding
Details: with parS DNA site
How it was run: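 Fitness is the rescaled log change in variant-to-wild-type read ratio, measured by Illumina sequencing of plasmids before and after bacterial one-hybrid selection. The scale puts cognate at 1 and non-cognate at 0. Selection of Caulobacter ParB libraries, four specificity codons randomised, took place in E. coli USO with a HIS3 reporter, site 19 bp from the promoter, over 48 hours at 37°C on M9-minus-histidine with 0.1 mM IPTG and 5 mM 3-AT.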

one-hybrid fitness for binding parS DNA, 0.709:
RIET

one-hybrid fitness for binding parS DNA, 0.22:
RCSH

one-hybrid fitness for binding parS DNA, 0.73:
RWQC

one-hybrid fitness for binding parS DNA, ≤ 0.2:
LKDH
NQNT
QSQD
FRHC
GKRT
DGIC
NAQN
KEGM
LYPG
QGRS
ASAF
RDCN
GPPK
MMGR
QNAP
FKYR
SMVF
TPEY
NMMP
NSHK
PDEG
AKYG
DLPG
ENYT
HFIV
ERII
FHHI
KYSC
MTAW
YCKK
RLTV
SKKG
YSIG
NYNM
HTKV
MTDS
HPLQ
VCNA
AYNH
KMKC
GGMD
ASHD
FASD
QAIV
FRQV
YDMS
FAKS
QLYI
FPSS
NIRQ
CHAG
RLGL
RYPN
RLCK
KKAL
MQNC
YNMG
KPFV
PPGF
KLIT
WVSV
RSPF
IRFE
RANH
QMKV
YAIS
MNLR
FGAY
HNYW
GNMF
QPPI
AGIL
NHDY
QCHH
MRFN
KGAG
SVWR
AFTQ
HTDL
PSNN
FRGG
MFVS
RSDL
HAHM
RTYE
KQCG
SLPC
CVQT
HFES
QMGP
PGNV
TEER
NWIS
DMRY
GNRW
SSSA
TSCE
HFNL
PRHN
DSPL
PCSE
TAEN
IRRR
PHNP
HTSK
ASSG
TPLC
RSCI
TSPC
RQIL
SLTV
SHQS
RAGQ
GSDG
GDED
LPYY
QEQR
FKIS
FYVS
TTSK
PPTS
WNLC
MTKY
LKWC
EVAV
HMLN
TKRP
NCKN
HVRE
IHTS
NRTA
WIHS
PQRY
TFVR
PTFQ
ARRV
IPLA
TTPL
YERS
MSRM
TIAF
FVRT
DQPE
LNKN
WHID
VPFY
YLYM
DPMD
QLRW
RLLQ
ANRM
QQTW
CPFS
MSMK
FKKR
TQKE
QSQE
GPLS
QSVW
VTLC
MTER
NYMT
GDVG
NKLV
CDIS
QHCR
VSAP
LDLS
KIKS
MREL
EDER
STYS
YGLC
HSKC
QQQY
SHKC
PRTQ
CPDS
IDAW
GDLC
KALF
YLAS
CQLA
GRDG
MEAT
TEVC
FHVR
SCLG
ACDT
LKKY
AVPW

one-hybrid fitness for binding parS DNA, 0.927:
RCRG
